The whole screen tested about 310,000 compounds, of which about 2,200 (0.71%) showed an effect of 50% or more. The effect is printed as a negative number. This is one part of the list. Where a SMILES comes first, the peptide text is derived from it. The star is where a group is joined. Boc = CC(C)(C)OC(=O)*
What follows are compounds tested against human ether-à-go-go-related gene (hERG) potassium channel (human, UniProt Q12809) (assay: primary screen, population patch clamp on CHO cells stably expressing hERG).
Sequence of human ether-à-go-go-related gene (hERG) potassium channel (Q12809 whole entry, looked up): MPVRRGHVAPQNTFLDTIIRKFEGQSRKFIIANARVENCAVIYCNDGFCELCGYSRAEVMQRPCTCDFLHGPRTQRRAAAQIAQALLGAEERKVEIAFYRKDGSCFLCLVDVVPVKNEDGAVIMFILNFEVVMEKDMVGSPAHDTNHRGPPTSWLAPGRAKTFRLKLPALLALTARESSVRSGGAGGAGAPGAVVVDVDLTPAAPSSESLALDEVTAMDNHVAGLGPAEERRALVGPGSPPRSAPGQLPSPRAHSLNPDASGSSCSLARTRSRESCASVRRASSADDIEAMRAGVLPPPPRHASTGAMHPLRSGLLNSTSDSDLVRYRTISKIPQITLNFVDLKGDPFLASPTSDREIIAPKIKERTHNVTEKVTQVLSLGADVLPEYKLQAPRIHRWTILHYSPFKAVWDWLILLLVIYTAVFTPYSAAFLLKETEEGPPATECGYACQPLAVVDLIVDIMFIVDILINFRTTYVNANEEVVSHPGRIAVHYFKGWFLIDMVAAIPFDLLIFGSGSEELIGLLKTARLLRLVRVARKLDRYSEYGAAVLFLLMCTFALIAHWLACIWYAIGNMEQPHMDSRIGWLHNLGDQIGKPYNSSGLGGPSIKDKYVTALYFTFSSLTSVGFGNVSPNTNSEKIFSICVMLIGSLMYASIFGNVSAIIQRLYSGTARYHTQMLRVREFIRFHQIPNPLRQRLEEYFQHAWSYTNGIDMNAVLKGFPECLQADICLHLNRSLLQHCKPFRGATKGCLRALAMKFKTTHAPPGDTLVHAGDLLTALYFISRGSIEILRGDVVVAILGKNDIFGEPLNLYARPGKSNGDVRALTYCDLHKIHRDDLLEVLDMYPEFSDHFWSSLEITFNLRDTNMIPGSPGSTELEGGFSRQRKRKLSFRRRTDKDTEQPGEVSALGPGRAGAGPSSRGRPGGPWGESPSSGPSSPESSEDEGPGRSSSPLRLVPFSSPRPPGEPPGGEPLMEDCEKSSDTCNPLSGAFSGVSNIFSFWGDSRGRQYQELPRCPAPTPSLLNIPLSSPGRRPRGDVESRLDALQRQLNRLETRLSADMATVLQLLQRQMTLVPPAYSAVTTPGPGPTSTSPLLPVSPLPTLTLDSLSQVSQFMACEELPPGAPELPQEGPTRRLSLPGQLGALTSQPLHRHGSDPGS

Structure (SMILES)	hERG current change (%, negative = inhibition) at 1uM [%]
O=C(NCc1ccccc1)C(c1ccc(F)cc1)N(C(=O)c1csnn1)C1CC1 (centres unmarked)	7.98
CCn1c(SCC(=O)Nc2ccc(OC)cc2)nc2c1c(=O)n(C)c(=O)n2C	3.11
Cc1ccc(C)c(NC(=O)CN(C)C(=O)c2ccccc2Cc2ccccc2)c1	-10.8
O=C(NCc1n[nH]c(=S)n1Cc1ccccc1)c1ccccc1	3.18
COCCN(Cc1ccc(F)cc1)C(=O)c1cc2ccccc2oc1=O	10.2
CCCCc1nnc(SC(C)C(=O)Nc2nccs2)n1C (centres unmarked)	12
CCOc1cc(NC(=O)c2ccccc2[N+](=O)[O-])c(OCC)cc1NC(=O)CC(C)C	12.5
CC1CN(C(=O)CCC(=O)NCc2ccccn2)c2ccccc2O1 (centres unmarked)	12.4
CC1(C)CNC(=O)CC(C)(C)N1	-0.397
CCN(CC)CCCCNc1ncc2cc(-c3cc(OC)cc(OC)c3)c(NC(=O)NC(C)(C)C)nc2n1	1.26
COc1ccc(C(=O)NCC2(c3ccccc3)CCOCC2)cc1	13.5
COc1ccccc1OCCn1cc(C(=O)C(C)C)c2ccccc21	12.4
CC(OC(=O)c1nn(C(C)C)c(=O)c2ccccc12)C(=O)Nc1ncc(Cl)cc1Cl (centres unmarked)	16.9
Oc1[nH]c2ccccc2c1N=Nc1nc(Nc2ccccc2)nc(N2CCOCC2)n1	-2.39
COc1ccc(OCC(=O)NNC(=S)NC(=O)c2ccc([N+](=O)[O-])cc2)cc1	9.67
NC(=O)c1cc(C(=O)Cc2ccc(Cl)cc2)c[nH]1	13.6
O=C(CSc1nc2c(cnn2-c2ccccc2)c(=O)[nH]1)NC1CCS(=O)(=O)C1 (centres unmarked)	14.8
COc1ccc(CNC(=O)c2ccccc2C(=O)O)cc1	0.458
CCN(C(=O)CN1C(=O)c2ccccc2S1(=O)=O)C1CCCCC1	-3.31
O=C(CCc1ccccc1)NNC(=O)c1ccco1	12.2
CC(C)c1ccc(N2CC(C)(C)C2=O)cc1	9.3
O=C(NCCNC(=O)c1ccccn1)c1ccc(F)cc1	16.3

Structure (SMILES)	hERG current change (%, negative = inhibition) at 1uM [%]
O=S(=O)(c1ccccc1)c1cnc(-c2ccccc2)nc1N1CCCCC1	18.7
CCOC(=O)CC(NC(=O)c1cccs1)c1ccc(C)cc1 (centres unmarked)	18.1
CC(C)(C)c1cc(C(=S)N2CCCC2)cc(C(C)(C)C)c1O	22.3
COc1ccc(C(=O)NNC(=O)CSc2nnnn2C)cc1	2.17
COc1cccc(C2C(=O)c3ccccc3C2=O)c1	16.8
NC(=O)C1CCN(CC(=O)Nc2cc(S(=O)(=O)N3CCOCC3)ccc2N2CCCC2)CC1	-1.18
Cc1ccc(-c2nn3cnnc3c3ccccc23)cc1	2.01
O=C(COC(=O)c1ccc(O)cc1)Nc1ccccc1-c1ccccc1	4.16
CC(C)c1nc(SCC(=O)Nc2cccc(C(F)(F)F)c2)c2c(=O)n(C)c(=O)n(C)c2n1	-1.24
O=C(Cn1cc(C(=O)c2cccs2)c2ccccc21)NC1CCCCC1	1.49
O=C(NCc1ccc(F)cc1)C1CCCN1C(=O)Nc1ccc(Cl)cc1 (centres unmarked)	9.95
Cn1cnnc1SCC(=O)NC1CCCCCC1	12.2
CC(=O)Nc1cccc(-c2csc(Nc3ccc(Cl)cn3)n2)c1	2.04
COC(=O)C(Cc1ccccc1)NC(=O)C(CC(C)C)NC(=O)OC(C)(C)C (stereo not drawn) (Boc-Leu-Phe-OMe; configuration not given here)	14.2
COc1ccccc1C(=O)O/N=C(\c1ccccc1)c1ccncc1	9.94
CCc1ccccc1NC(=S)NCCSc1ccc(Cl)cc1	12.6
Cc1ccc2nc(/C(C#N)=C/c3ccccc3C(=O)O)[nH]c2c1	11.5
Cc1cnc(C)c(N2CCN(Cc3nc(-c4cccc(F)c4F)oc3C)CC2)n1	-0.107
CCCCCCn1c(N2CCC(C(N)=O)CC2)nc2c1c(=O)n(C)c(=O)n2C	-2.94
CC(C)(C)OC(=O)N[C@@H](Cc1ccccc1)C(=O)N1CCC(C(=O)N[C@@H](CCC(N)=O)C(=O)O)CC1	7.05
CN1C(=O)/C(=C/c2ccc(C(=O)NC3CCCC3)cc2)Oc2ccccc21	20.1
O=C(Nc1ccc(Br)cc1F)c1ccc2c(c1)N(Cc1ccccc1)C(=O)CS2=O (centres unmarked)	7.73

Source: article PMC4336329 (PLoS ONE, 2015)
